B1: LINE1-mini (parent)
chain: GGCAGAGCUCAACACAGCGUGGCAAAGUGGCUGUGGCUAGACUGCC

Read counts are not given, so values of variants with three or more changes are uncertain.

In the data set the parent is B1. Nature of the data set: self-cleavage, relative activity (ratio to wild type); higher = more cleavage; in vitro, sequencing; the parent is a self-cleaving ribozyme.
For G5C G21U U32C C37G C42U G44U, the self-cleavage amounted to 0.01.

As to G5C G22C A26G A39U U43C, the self-cleavage worked out at 0.03.

On to G5U A12C G21U C46A, for which the self-cleavage worked out at 0.01.

G5U C8G U20A G33A A39U A41C: the self-cleavage was found to be 0.02.

Consider G5U C10A G27U U32C U43C G44C C46A, for which the self-cleavage turned out to be 0.02.

On to G5U A16G A41G G44C C46G, for which the self-cleavage turned out to be 0.01.

On to G5U A14U G29A C31U, for which the self-cleavage was found to be 0.

Consider G5U A25U U32C G33U, for which the self-cleavage worked out at 0.05.

For G5U C10A G22A G29A U38A, the self-cleavage came out at 0.02.

Consider G5U C8G A26C A39G A41G, for which the self-cleavage came out at 0.

Take G5U C8G G21U G35A: the self-cleavage was 0.18.

Turning to G5C U20G G21U C23G, the self-cleavage amounted to 0.02.

On to G5U A26U G44U, for which the self-cleavage turned out to be 0.04.

Regarding G5U A16C A24G A25G U28A G33A C37G U43C, the self-cleavage is 0.

As to G5U C10A G17A A41C, the self-cleavage was 0.02.

As to G5C U28C U32C G35U, the self-cleavage turned out to be 0.01.

With G5C U9G A25G G30A C31U G33A, the self-cleavage was found to be 0.09.

Regarding G5U A25U G40A, the self-cleavage amounted to 0.1.

Regarding G5U C10A C18G A24C, the self-cleavage was found to be 0.02.

G5U A25U A26G G40U: the self-cleavage stood at 0.12.

On to G5U A14G G19A, for which the self-cleavage came out at 0.06.

In the case of G5U A11G C23U, the self-cleavage was determined as 0.

On to G5C U9A G19A A26G, for which the self-cleavage worked out at 0.04.

G5U A25U C45G: the self-cleavage was 0.05.

G5U A11U G22A A25C: the self-cleavage turned out to be 0.03.

As for G5C G27A U28C C42U, the self-cleavage was determined as 0.1.

Take G5C G17A G30A: the self-cleavage amounted to 0.02.

Regarding G5C G29A G33A, the self-cleavage came out at 0.06.

For the variant G5U A24G C42U C46A, the self-cleavage was 0.03.

G5C G29U G40U: the self-cleavage turned out to be 0.08.

As for G5U A11U G22U, the self-cleavage stood at 0.03.

On to G5U A6U A14C C37U G44C, for which the self-cleavage is 0.08.

Take G5C U20C G40C: the self-cleavage came out at 0.08.

Consider G5C U32G U34A G35C, for which the self-cleavage is 0.04.

For G5U A14G A26U G30U C31G G35A A41U, the self-cleavage came out at 0.

For the variant G5U C8A A14C U28G G30C U34A, the self-cleavage came to 0.04.

Regarding G5C U9G G36C, the self-cleavage stood at 0.1.

For the variant G5U A6U A24U G44A, the self-cleavage is 0.07.

For G5C G17U G27U U32A U34C C42A, the self-cleavage came to 0.

As for G5U C8A U20G C23U C37G, the self-cleavage amounted to 0.54.

Consider G5C G17C G19U G22A, for which the self-cleavage turned out to be 0.01.

Consider G5C U9A G21A, for which the self-cleavage amounted to 0.03.

Regarding G5C G30A U34G U43G, the self-cleavage was 0.

Turning to G5U C8G A12U A14U G22A, the self-cleavage is 0.01.

As for G5C U28A G44A, the self-cleavage was determined as 0.12.

Regarding G5U A14G G27U C46A, the self-cleavage is 0.05.

As to G5U C10U C13U A14C G22U C23U U34G, the self-cleavage amounted to 0.

Take G5C G22A C23U A24C G35A C45U: the self-cleavage worked out at 0.32.

Regarding G5C U9A G17C, the self-cleavage was 0.04.

Regarding G5U A6G C8G C23U G27U U34C G40A, the self-cleavage stood at 0.01.

For the variant G5C G27A U32A C46A, the self-cleavage came to 0.02.

In the case of G5U A25U C46G, the self-cleavage was 0.12.

In the case of G5C G33C C42A, the self-cleavage amounted to 0.06.

Consider G5C G21A U32A U34G C42U, for which the self-cleavage amounted to 0.01.

Turning to G5C G22C G27A G30A U43A C45U, the self-cleavage came to 0.

Turning to G5U A6U U32C, the self-cleavage is 0.11.

Regarding G5U A26G C31A U34A A41C C46A, the self-cleavage turned out to be 0.

Consider G5U C10A G27U U34C, for which the self-cleavage was 0.01.

In the case of G5U A26C G36A C42A, the self-cleavage came out at 0.11.

Turning to G5U A6C C8G C23U, the self-cleavage came to 0.01.

For the variant G5U C10U A39C, the self-cleavage was determined as 0.1.

For G5C G29U C37A, the self-cleavage was 0.05.

As to G5C G19C G27U, the self-cleavage was found to be 0.1.

With G5U C8U C23G, the self-cleavage amounted to 0.12.

In the case of G5U C10G G22A G30A U32A G40A A41C, the self-cleavage is 0.

G5C G7U G21U: the self-cleavage was found to be 0.04.

In the case of G5U C10A U20C C23U U43A, the self-cleavage came to 0.01.

As for G5U C8U C13U G29U, the self-cleavage came to 0.5.

Regarding G5U A26C C37A, the self-cleavage is 0.1.

With G5U A12G A16U U20A C31U G33U, the self-cleavage is 0.02.

In the case of G5U C10A U20C, the self-cleavage came out at 0.01.

G5C U9C G27A C42U: the self-cleavage amounted to 0.03.

With G5C G7U G17C A25U C45G, the self-cleavage was determined as 0.11.

On to G5C U9G G17U A41C, for which the self-cleavage was 0.02.

As to G5C U20G C23G, the self-cleavage was determined as 0.04.

On to G5C G27C G30U U38A, for which the self-cleavage amounted to 0.07.

Regarding G5U A6U A12G G19U A26C C45U, the self-cleavage came to 0.02.

As to G5U C10G C15G G21U A25G U32C G36C, the self-cleavage came to 0.02.

For the variant G5U C10G A12U C37A U38A, the self-cleavage amounted to 0.01.

Take G5U C10A G21U C46A: the self-cleavage came to 0.06.

As to G5C U20G G27U G29U A39C, the self-cleavage came to 0.02.

Consider G5U A6G C42G, for which the self-cleavage stood at 0.13.

Take G5U A6G C42A: the self-cleavage came out at 0.08.

On to G5U C8U C13A A14U A16G A26G, for which the self-cleavage was 0.32.

In the case of G5C G30A G40A, the self-cleavage was found to be 0.09.

For the variant G5C G29C C37U, the self-cleavage turned out to be 0.04.

With G5U C10A G17U C31A G33A, the self-cleavage is 0.03.

Turning to G5U A6U G7U G19A G36U, the self-cleavage came out at 0.14.

For G5U A16G U20C C23A C42G C46U, the self-cleavage is 0.02.

For G5U C10G G27U C46U, the self-cleavage worked out at 0.

Regarding G5C G19C G21A G40C A41C, the self-cleavage turned out to be 0.02.

On to G5C U9A C10U C23U, for which the self-cleavage was found to be 0.04.

Consider G5C G7C A41C, for which the self-cleavage was 0.14.

Regarding G5U C10A G17A C31U, the self-cleavage amounted to 0.08.

On to G5C G21A A25C C46A, for which the self-cleavage worked out at 0.05.

For G5U A12C U20G A24U G33A U34A C37G, the self-cleavage amounted to 0.02.

In the case of G5U C10G A39C, the self-cleavage turned out to be 0.04.

In the case of G5U A6G U32C, the self-cleavage is 0.07.

For the variant G5C G7U C18U, the self-cleavage amounted to 0.1.

For G5U A11G G17A A26C C37G, the self-cleavage amounted to 0.01.

With G5U A14U A26U C37G G40A, the self-cleavage amounted to 0.03.

As for G5U C8A A12U A25U U38A, the self-cleavage worked out at 0.13.

On to G5C G7C C8G, for which the self-cleavage turned out to be 0.07.

G5C U38A G40U: the self-cleavage is 0.01.

Take G5C G33A U34A: the self-cleavage amounted to 0.07.

In the case of G5C G17A U34A, the self-cleavage is 0.1.

As for G5U A14G G17A U32G C37U, the self-cleavage amounted to 0.05.

Consider G5U A14C G40C G44C, for which the self-cleavage came to 0.02.

Turning to G5C U9C C10A C45G, the self-cleavage came out at 0.01.

In the case of G5C G17U G33U, the self-cleavage came out at 0.08.

Regarding G5U A16C G36A C42A, the self-cleavage turned out to be 0.02.

With G5C G7U A11U A24U G29U C45U, the self-cleavage was determined as 0.

With G5C G19U G35U, the self-cleavage was determined as 0.04.

Take G5C G29U C31G: the self-cleavage is 0.04.

For G5U A26U G29U A41G, the self-cleavage stood at 0.04.

G5U C10A G17U C23A: the self-cleavage is 0.03.

For the variant G5C G17A U28C, the self-cleavage amounted to 0.02.

With G5U C10A A24U, the self-cleavage is 0.02.

For G5U C8A C13G C23A C42U, the self-cleavage stood at 0.13.

Regarding G5U A14G C37G, the self-cleavage was 0.17.

As to G5U C10U G17C C23A A39U, the self-cleavage was 0.02.

Regarding G5C G7C C45A, the self-cleavage came out at 0.11.

Consider G5C G33C G36C, for which the self-cleavage stood at 0.02.

As for G5U A11U A14G G29U, the self-cleavage came to 0.

For G5C G21U C37A A41G, the self-cleavage turned out to be 0.

As to G5U A12U G22A, the self-cleavage amounted to 0.03.

For G5C U9A A11C, the self-cleavage came out at 0.01.

As to G5U A11G A39G, the self-cleavage was found to be 0.01.

As to G5U A39C C45G, the self-cleavage is 0.02.

Turning to G5C U28G G40C, the self-cleavage was found to be 0.01.

With G5U C8G A16G A24G U43A, the self-cleavage worked out at 0.15.

Turning to G5C U34C C37A, the self-cleavage is 0.03.

Regarding G5C G19U A26U G27U, the self-cleavage was found to be 0.08.

On to G5U A16C C18G G30C G44U, for which the self-cleavage turned out to be 0.03.

Take G5U A11U G21U G35U: the self-cleavage was 0.02.

G5U C8U C15G U28C: the self-cleavage turned out to be 0.12.

Regarding G5U A11G G44A C45U, the self-cleavage was 0.02.

In the case of G5U A14U C15A G17U, the self-cleavage came out at 0.

Regarding G5U A6U A41U, the self-cleavage is 0.11.

As to G5U C10A C13U C37U, the self-cleavage came to 0.02.

On to G5U A16U U43A, for which the self-cleavage was determined as 0.14.

Consider G5U A11G A26U G30U U32C U38A, for which the self-cleavage stood at 0.01.

On to G5U A14C G21A G22C G29A, for which the self-cleavage worked out at 0.02.

Turning to G5U A6C G22A A39G, the self-cleavage came out at 0.05.

G5C G7C U32G G36C: the self-cleavage was determined as 0.01.

Regarding G5U C8G G44U, the self-cleavage was determined as 0.09.

G5U C10G G30A G36C: the self-cleavage came out at 0.02.

For the variant G5U C8U C18G G29A C31A C46A, the self-cleavage was found to be 0.11.

With G5U A25U C31U, the self-cleavage turned out to be 0.04.

With G5U A14U G22A A41C C42U, the self-cleavage was 0.02.

In the case of G5U C10A G33A, the self-cleavage was found to be 0.03.

G5C U38G A39U: the self-cleavage is 0.05.

Turning to G5U A11U C13U G36A U43A C46A, the self-cleavage was determined as 0.02.

With G5U A6C C10A A16G U28C C37A, the self-cleavage was determined as 0.

Regarding G5U A14C U20A A24U, the self-cleavage worked out at 0.01.

Take G5U C10A G17C: the self-cleavage was found to be 0.02.

Take G5C G29A G44C: the self-cleavage came out at 0.07.

For the variant G5C G30A C37A, the self-cleavage came to 0.05.

For the variant G5U A12G G35U U43C, the self-cleavage amounted to 0.

For the variant G5U A39C G44A, the self-cleavage amounted to 0.03.

Take G5U C10A U34G: the self-cleavage was 0.02.

As for G5U C10A G36U, the self-cleavage is 0.04.

As for G5U C8A G19U G30U C37U, the self-cleavage amounted to 0.18.

With G5U A6U U20G G33A U34A A41G G44U C45G, the self-cleavage came to 0.

Take G5C G30U U38G: the self-cleavage is 0.07.

Turning to G5U A6U A16U U34C, the self-cleavage is 0.08.

Consider G5U C10A C15G C31U G36U A39U, for which the self-cleavage is 0.01.

The values are drawn from the RNAGym collection of RNA variant scans (doi:10.7554/elife.90254).
